From PubChem BioAssay AID743279 (National Center for Advancing Translational Sciences (NCATS), 2014)
Screen size: about 360,000 compounds; about 17,000 (4.7%) were called active. The shares of active, inactive and inconclusive entries below differ from those in the screen. Rule as the data show it: active = activity change below about -50%; inconclusive = mostly about -30% to -49%; inactive = weaker than that.

Experiment: qHTS for Inhibitors of Inflammasome Signaling: IL-1-beta AlphaLISA Primary Screen
Details: THP-1 LPS/ATP IL-1B secretion, 16 h; at 57.5 µM, hits give low values
How it was run: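 THP-1 cells pretreated 1 hr with compounds (up to 57.5 uM final), then stimulated with LPS (250 ng/mL final) plus ATP (1.25 mM final); secreted IL-1B measured by AlphaLISA after 16 hr, decreased signal indicating inhibition.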
% is scaled to controls: 0 for no effect and ±100 for the full control effect.

Q: For `Cc1csc2nc(=O)c3ccccc3n12`, which activity change is on record?
A: inactive: 34.8%

Q: Which activity change does the source give for `C=CCn1c2ccccc2c(=O)c2cc(C#CC[C@@H](C)O)ccc21` here?
A: active: -67.4%

Q: For `Cc1[nH]c(C)c(S(=O)(=O)Nc2cccc(Cl)c2C)c1C(=O)N1CCCCC1`, which activity change is on record?
A: inconclusive: -33.3%

Q: With `CC(C)[C@H](NC(=O)N1CCn2c1nc1ccccc12)C(=O)NCc1ccc2c(c1)OCO2` as the compound, how does the activity change read?
A: inconclusive: -35.2%

Q: For `Cc1cccc(N(C(=O)CNC(=O)c2ccco2)C(C(=O)NC2CCCC2)c2ccncc2)c1` (stereo not given), which activity change is on record?
A: inactive: -12.4%

Q: Which activity change does the source give for `O=C(NNC(=S)Nc1ccccc1)c1cc(-c2cccnc2)nc2ccccc12` here?
A: inactive: -7.23%

Q: Which activity change does the source give for `CNC(=O)c1cc(C(=O)c2ccc(F)cc2Cl)c[nH]1` here?
A: inactive: 4.55%

Q: With `CCOC(=O)[C@]12Cc3c(cc(OC)c(OC)c3OC)[C@H]1N(C1CCCCC1)C(=O)c1cc(OC)ccc12` as the compound, how does the activity change read?
A: active: -118%

Q: Which activity change does the source give for `CC(C)(C)c1cc(NC(=O)c2cccs2)no1` here?
A: active: -51.3%

Q: With `CCc1ccc(OCCOCC(O)CN2CCN(Cc3ccc(Cl)cc3)CC2)cc1` (stereo not given) as the compound, how does the activity change read?
A: active: -52.9%

Q: Which activity change does the source give for `Cc1ccc(C(=O)/C=C/Nc2cccc([N+](=O)[O-])c2)o1` here?
A: inactive: -12.3%

Q: Which activity change does the source give for `O=[N+]([O-])c1cc(S(=O)(=O)N2CCOCC2)ccc1NS(=O)(=O)c1ccccc1` here?
A: active: -82.9%

Q: For `c1ccc(-n2nnnc2SCc2cccc3nsnc23)cc1`, which activity change is on record?
A: inconclusive: -41.3%

Q: Which activity change does the source give for `COc1ccc(Nc2ncc(F)c(N3CCOCC3)n2)cc1` here?
A: inconclusive: -38%

Q: Which activity change does the source give for `CCC1CCCCN1CCCNC(=O)Cn1nc(C)n2nc(-c3ccccc3)cc2c1=O` (stereo not given) here?
A: inconclusive: -39.5%

Q: For `Cc1ccc(NC(=O)c2ccc(OCc3c(C)noc3C)cc2)c(C)c1`, which activity change is on record?
A: inconclusive: -32.1%

Q: With `Clc1ccc(N2O[C@H]3C=C[C@@H]2C3)nc1` as the compound, how does the activity change read?
A: inconclusive: -37%

Q: For `CC(C)N(C(=O)[C@H]1C[C@H](CC(=O)NCCN2CCOCC2)C(=O)N2CCc3c([nH]c4ccc(Cl)cc34)[C@]12C)C(C)C`, which activity change is on record?
A: inconclusive: -38%

Q: For `CN(Cc1ccco1)C(=O)CSc1nn2c(=O)c(C(C)(C)C)nnc2s1`, which activity change is on record?
A: inactive: -24.9%

Q: For `COc1ccc(-c2nc(CSCC(=O)N3CCc4ccccc4C3)c(C)o2)cc1OC`, which activity change is on record?
A: inconclusive: -33%

Q: For `CCCNC(=O)c1oc2ccc3c(c2c1C)C(=O)CC(C)(C)O3`, which activity change is on record?
A: inconclusive: -42.3%

Q: With `COC(=O)[C@@]1(Sc2ccc(C)cc2)CC(=O)N(C(=O)/C=C/c2ccccc2)[C@@H]1c1ccccc1` as the compound, how does the activity change read?
A: inconclusive: -39.5%

Q: Which activity change does the source give for `O=S(=O)(NCC1CCCN(Cc2ccccc2)C1)c1cccc2cccnc12` (stereo not given) here?
A: inconclusive: -30.1%

Q: Which activity change does the source give for `CCOC(=O)c1nc(C)n(-c2cc(OC)c(Cl)cc2Cl)n1` here?
A: active: -92.4%

Q: For `Cc1ccc(NC(=O)CN2C(=O)NC(C)(c3ccc(Cl)cc3)C2=O)cc1` (stereo not given), which activity change is on record?
A: inconclusive: -46.8%

Q: For `CCc1cc(Cn2nc(-c3ccccc3)cc2C(=O)NCc2cccs2)on1`, which activity change is on record?
A: active: -72.6%

Q: With `OCCOCCn1c(C(CO)Nc2nc(-c3ccc(Cl)cc3)cs2)nc2ccccc21` (stereo not given) as the compound, how does the activity change read?
A: inconclusive: -38%

Q: With `O=c1c2ccc(Cl)cc2nc(-c2cccc(C(F)(F)F)c2)n1O` as the compound, how does the activity change read?
A: inactive: 105%

Q: Which activity change does the source give for `COc1ccc2c(CC(=O)NNC(=O)c3ccc(O)cc3)coc2c1` here?
A: inactive: 16.2%

Q: With `Cc1ccc(NC(=O)CN(C)Cc2ccc(F)cc2)c([N+](=O)[O-])c1` as the compound, how does the activity change read?
A: active: -62.3%

Q: Which activity change does the source give for `COc1ccc(C(=O)NCc2ccc(N3CCN(C(=O)OC(C)(C)C)CC3)cc2)cc1` here?
A: inconclusive: -30.7%

Q: For `Cc1ccc(S(=O)(=O)CCSc2n[nH]c(=O)n2-c2ccccc2)cc1`, which activity change is on record?
A: inconclusive: -37.6%

Q: Which activity change does the source give for `N#CCc1nc(C(c2ccccc2)c2ccccc2)no1` here?
A: inconclusive: -42.4%

Q: For `Cc1nc(-[n+]2nc(-c3ccncc3)nn2-c2ccccc2)sc1C`, which activity change is on record?
A: inconclusive: -40.1%

Q: For `COc1cc2c(cc1NC(=O)Nc1ccccc1)oc1ccccc12`, which activity change is on record?
A: inconclusive: -37.3%

Q: For `CCNc1nc(Oc2ccc(C#N)cc2)cc(C(F)(F)F)n1`, which activity change is on record?
A: active: -57.5%

Q: Which activity change does the source give for `C#Cc1ccc(CN2CCCC(C(=O)Nc3ccccc3Oc3cccnc3)C2)cc1` (stereo not given) here?
A: inconclusive: -42.1%

Q: With `CCOC(=O)C1CCCN(C/C=C/c2ccccc2[N+](=O)[O-])C1` (stereo not given) as the compound, how does the activity change read?
A: inactive: 54.4%

Q: For `CCOc1ccccc1NC(=O)CCC(=O)Nc1ccc2nc(N3CCN(C)CC3)cc(C)c2c1`, which activity change is on record?
A: inconclusive: -40.3%

Q: With `CCN(CC)C(=O)c1c[nH]c2ccc(S(=O)(=O)Nc3cc(C)cc(C)c3)cc2c1=O` as the compound, how does the activity change read?
A: inconclusive: -43.3%

Q: With `O=Cc1c[nH]c2ccc(NC(=O)OCc3ccccc3)cc12` as the compound, how does the activity change read?
A: inconclusive: -32.2%

Q: For `O=C(Cc1ccccc1F)Nc1cccc(S(=O)(=O)N2CCOCC2)c1`, which activity change is on record?
A: inactive: 20.7%

Q: For `COc1ccc(-n2nc(C(=O)NCC(=O)N(C)Cc3ccccc3)c3ccccc3c2=O)cc1OC`, which activity change is on record?
A: inactive: -13.1%

Q: For `CC1(C)Cc2c(c(N3CCCC3)nc3sc4c(N5CCNCC5)ncnc4c23)CO1`, which activity change is on record?
A: inconclusive: -31.5%

Q: Which activity change does the source give for `CCc1cccc(C)c1NC(=O)CN1CCN(S(=O)(=O)c2ccc(C(C)(C)C)cc2)CC1` here?
A: inconclusive: -47.5%

Q: Which activity change does the source give for `COc1cc(NC(=O)c2cc3nc(C4CC4)cc(C(F)(F)F)n3n2)c(OC)cc1Cl` here?
A: inconclusive: -42.1%

Q: With `O=C(O)c1cccc(CSc2nnc(Cc3ccccc3)o2)c1` as the compound, how does the activity change read?
A: inconclusive: -46.5%

Q: Which activity change does the source give for `Cc1cc(C)c2c(NC(=O)CCl)nn(C)c2n1` here?
A: active: -97.8%

Q: With `O=C(Nc1ccc(Cl)cn1)C1CC1` as the compound, how does the activity change read?
A: inconclusive: -39.3%

Q: For `FC(F)(F)c1cnc(C(c2ccccn2)c2ncn[nH]2)c(Cl)c1` (stereo not given), which activity change is on record?
A: inactive: 77.7%

Q: With `O=C(NCc1cccnc1)NC(=O)c1ccc(Cl)cc1` as the compound, how does the activity change read?
A: inactive: 0%

Q: With `O=C(Nc1cccc(Cl)c1)C1CCCN(S(=O)(=O)c2ccc(F)cc2)C1` (stereo not given) as the compound, how does the activity change read?
A: active: -51.2%

Q: For `Cn1ncc(C#N)c1/N=C/N1CCCC1`, which activity change is on record?
A: inconclusive: -33.6%

Q: With `Cc1cccc(C)c1NC(=O)CN1CCN(CCCC(c2ccc(F)cc2)c2ccc(F)cc2)CC1` as the compound, how does the activity change read?
A: active: -60.2%

Q: For `O=C(NCc1ccc2c(c1)OCO2)c1c(O)nc2sccn2c1=O`, which activity change is on record?
A: inconclusive: -32.7%

Q: Which activity change does the source give for `CC(C)CNS(=O)(=O)c1ccc(CCC(=O)Nc2cc(Cl)ccc2Oc2ccccc2)cc1` here?
A: inconclusive: -49.1%

Q: Which activity change does the source give for `CCC[C@@H](CN1CCC[C@H]1CN1C(N)=NC[C@H]1CC(C)C)N1C[C@@H](Cc2ccccc2)N(CCCC2CCCC2)C1=N` here?
A: active: -65.5%

Q: Which activity change does the source give for `O=C1c2ccccc2C(=O)c2c1cccc2N(CCO)CCO` here?
A: inactive: -9.61%

Q: With `COc1ccc(Cl)cc1C=CC=Nc1ccccc1O` as the compound, how does the activity change read?
A: inconclusive: -45.4%

Q: For `CC(=O)c1ccc(C(=O)Nc2ccc3c(c2)C(=O)NC3=O)cc1`, which activity change is on record?
A: inactive: -4.3%

Q: Which activity change does the source give for `CN1CCN(C(=O)c2cccc(-c3cnc4cnc(-c5ccccc5Oc5ccccc5)cn34)c2)CC1` here?
A: active: -57.1%

Q: With `O=[N+]([O-])c1ccccc1SN(Cc1ccccc1)c1ccccn1` as the compound, how does the activity change read?
A: inconclusive: -42.2%

Q: For `COc1ccccc1CCNC(=O)Cn1ccc2cc(S(=O)(=O)N3CCC(C)CC3)ccc21`, which activity change is on record?
A: inconclusive: -35%

Q: With `O=C(CCNC(=O)C1CCN(S(=O)(=O)c2ccc(F)cc2)CC1)Nc1ccccc1` as the compound, how does the activity change read?
A: inconclusive: -39.6%

Q: Which activity change does the source give for `CCN(CC)C(=O)C(C)N(C#N)c1nc(Cl)nc(N(C)C)n1` (stereo not given) here?
A: active: -98%

Q: Which activity change does the source give for `O=C(N1CCCC1)C12CC3CC(CC(Cl)(C3)C1)C2` here?
A: inactive: 24.7%

Q: For `O=C(N/N=C/c1ccc(O)c(Br)c1)c1cc2c(ccc3ccccc32)o1`, which activity change is on record?
A: inconclusive: -43.7%

Q: For `CC1CCN(CCCNC(=O)c2cc3c(=O)n(C)c4ccccc4c3n2C)CC1`, which activity change is on record?
A: active: -66.4%

Q: For `CC(=O)c1cc(F)ccc1OCC(=O)N1CCCc2ccccc21`, which activity change is on record?
A: inactive: 10.5%

Q: For `CCOc1ccc(NC(=O)C(CC)n2nc(C)c3c(C)n(-c4ccccc4)nc3c2=O)cc1` (stereo not given), which activity change is on record?
A: inconclusive: -34.1%

Q: Which activity change does the source give for `CN(C)CCCNC(=O)/C(=C\c1ccc(-c2ccc(Br)cc2)o1)NC(=O)c1ccccc1` here?
A: inconclusive: -42.2%

Q: For `CC(C)(C)c1ccc(C(=O)N2[C@H](COCc3ccccc3)C=CS2(=O)=O)cc1`, which activity change is on record?
A: inconclusive: -37.3%

Q: For `COC(=O)c1cc(NC(=O)c2cc(C(C)(C)C)nn2Cc2ccc(F)cc2)ccc1N1CCOCC1`, which activity change is on record?
A: inconclusive: -42.8%

Q: With `CC(C)N1CCc2c(sc(NC(=O)c3ccco3)c2C(N)=O)C1` as the compound, how does the activity change read?
A: inconclusive: -34%

Q: For `CC(=O)c1ccc(OCc2cc(C(=O)N3CCN(c4ccccc4)CC3C)no2)cc1` (stereo not given), which activity change is on record?
A: inconclusive: -31.7%

Q: For `C#CCOCCOCCOCCNc1nc(N2CCOCC2)nc(N2CCN(C(=O)CCCCCCCCCCNC(=O)[C@@H](CCSC)n3cc(CCO)nn3)CC2)n1`, which activity change is on record?
A: inconclusive: -42.2%

Q: Which activity change does the source give for `Oc1ccc2ccccc2c1C=Nc1ccccc1Br` here?
A: inactive: 23.8%

Q: With `COc1ccc(C)cc1-n1c(N)c(C#N)c(C#N)c1-c1ccc(OC)c(OC)c1OC` as the compound, how does the activity change read?
A: inconclusive: -30%

Q: Which activity change does the source give for `CCn1nc(C(=O)Nc2ccc3nc(C)sc3c2)c2ccccc2c1=O` here?
A: inconclusive: -30.8%

Q: Which activity change does the source give for `COC(=O)c1ccc(CCc2cc(O)ccc2O)cc1` here?
A: inconclusive: -36.2%

Q: For `Cc1[nH]c(=O)[nH]c(=O)c1S(=O)(=O)N1CCCC(C(=O)NCc2ccccc2Cl)C1` (stereo not given), which activity change is on record?
A: inactive: 4.84%

Q: Which activity change does the source give for `COc1ccc(-c2cc(=O)oc3cc(OCC(C)=O)ccc23)cc1` here?
A: inactive: -0.85%

Q: With `O=C1NC(c2ccccc2)=C(c2nc3ccccc3s2)C(c2ccccc2)N1` (stereo not given) as the compound, how does the activity change read?
A: inconclusive: -45.2%

Q: With `COc1ccc2nc3cc(Cl)ccc3c(Nc3ccc(O)c(CN4CCN(C)CC4)c3)c2c1` as the compound, how does the activity change read?
A: active: -114%

Q: Which activity change does the source give for `Cc1ccc(-c2cnc3c(c2)C(=O)N([C@H](C)CO)C[C@@H](C)[C@@H](CN(C)C(=O)Cc2ccccc2)O3)cc1` here?
A: inconclusive: -34.9%
